# From the supplement of paper PMC12645437, “Orthogonal IMiD-Degron Pairs Induce Selective Protein Degradation in Cells” (ACS Chemical Biology, 2025)
# The other results are listed elsewhere or left out.
# B1: Q9UKT9 (peptide)
# chain: FWCDICGAHFTQKGNLLRHIKL
# B2: Q9UKT9 (peptide)
# chain: LHCEICGFHCTQKGNLLRHIKL
# B3: Q9UKT9 (peptide)
# chain: FGCNICGAMFTQKGNLLRHIKL
# B4: Q9UKT9 (peptide)
# chain: FACSVCGHNFTQKGNLLRHIKL
# B5: Q9UKT9 (peptide)
# chain: FACNICGAPFTQKGNLLRHIKL
# B6: Q9UKT9 (peptide)
# chain: FNCNICGAHFTQKGNLLRHIKL
# B7: Q9UKT9 (peptide)
# chain: FTCNICGAVFTQKGNLLRHIKL
# B8: Q9UKT9 (peptide)
# chain: FICDQCGAIFTQKGNLLRHIKL
# B9: Q9UKT9 (peptide)
# chain: FMCPICGRHFTQKGNLLRHIKL
# B10: Q9UKT9 (peptide)
# chain: FHCNVCGAGFTQKGNLLRHIKL
# B11: Q9UKT9 (peptide)
# chain: FGCPICGHEFTQKGNLLRHIKL
# B12: Q9UKT9 (peptide)
# chain: FDCDQCGAKFTQKGNLLRHIKL
# B13: Q9UKT9 (peptide)
# chain: FKCNQCGRLFTQKGNLLRHIKL
# B14: Q9UKT9 (peptide)
# chain: FWCDICGAEFTQKGNLLRHIKL
# B15: Q9UKT9 (peptide)
# chain: FLCEICGAPFTQKGNLLRHIKL
# B16: Q9UKT9 (peptide)
# chain: LCCEICGFMCTQKGNLLRHIKL
# B17: Q9UKT9 (peptide)
# chain: FLCNQCGAGFTQKGNLLRHIKL
# B18: Q9UKT9 (peptide)
# chain: LNCNQCGFGCTQKGNLLRHIKL
# B19: Q9UKT9 (peptide)
# chain: FSCPICGAPFTQKGNLLRHIKL
# B20: Q9UKT9 (peptide)
# chain: FYCNQCGHHFTQKGNLLRHIKL
# B21: Q9UKT9 (peptide)
# chain: FACNICGAEFTQKGNLLRHIKL
# B22: Q9UKT9 (peptide)
# chain: FDCEVCGALFTQKGNLLRHIKL
# B23: Q9UKT9 (peptide)
# chain: FWCPICGHIFTQKGNLLRHIKL
# B24: Q9UKT9 (peptide)
# chain: FLCNICGANFTQKGNLLRHIKL
# B25: Q9UKT9 (peptide)
# chain: FMCEICGHMFTQKGNLLRHIKL
# B26: Q9UKT9 (peptide)
# chain: LCCPICGFFCTQKGNLLRHIKL
# B27: Q9UKT9 (peptide)
# chain: FYCPICGHGFTQKGNLLRHIKL
# B28: Q9UKT9 (peptide)
# chain: FFCEICGHCFTQKGNLLRHIKL
# B29: Q9UKT9 (peptide)
# chain: FDCPICGHLFTQKGNLLRHIKL
# B30: Q9UKT9 (peptide)
# chain: FDCEICGHSFTQKGNLLRHIKL
# B31: Q9UKT9 (peptide)
# chain: FDCNICGALFTQKGNLLRHIKL
# B32: Q9UKT9 (peptide)
# chain: FGCPICGAWFTQKGNLLRHIKL
# Target: no compound (DMSO)
# Experiment: log2 fold change of degron read counts, EGFP-low vs EGFP+ sorted cells; higher = lower degron-EGFP level without compound (poor expression or instability)
# Settings: compound: DMSO control; 18 h
# 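Further: jurkat cells carrying a lentiviral library of mutant zinc finger degrons fused to EGFP plus mCherry, mCherry+ cells FACS sorted, degron abundance counted by next-generation sequencing.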
row,Sequence,log2 fold change of degron read counts
1,B1,-0.306
2,B2,0.211
3,B3,0.213
4,B4,-0.767
5,B5,0.64
6,B6,-0.585
7,B7,-0.512
8,B8,-0.974
9,B9,0.268
10,B10,-0.481
11,B11,-0.608
12,B12,-3.3
13,B13,0.137
14,B14,-1.69
15,B15,-0.295
16,B16,0.0505

row,Sequence,log2 fold change of degron read counts
1,B17,-0.315
2,B18,1.44
3,B19,0.617
4,B20,0.573
5,B21,-0.909
6,B22,-0.0743
7,B23,1.51
8,B24,-0.431
9,B25,-1.05
10,B26,1.77
11,B27,-0.639
12,B28,-0.443
13,B29,-0.533
14,B30,-1.4
15,B31,0.164
16,B32,0.945
